# Results from article PMC4336329 (PLoS ONE, 2015).
# Hit rate of the full screen: of about 310,000 compounds, about 14,000 (4.5%) showed an effect of 50% or more. The effect is printed as a negative number. The list shows a part of the results.
# Biological target: human ether-à-go-go-related gene (hERG) potassium channel (human, UniProt Q12809)
# Assay: primary screen, population patch clamp on CHO cells stably expressing hERG
# 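Further: peak tail current of the secondary pulse compared with the same well before compound.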
# Sequence of human ether-à-go-go-related gene (hERG) potassium channel (Q12809 whole entry, looked up): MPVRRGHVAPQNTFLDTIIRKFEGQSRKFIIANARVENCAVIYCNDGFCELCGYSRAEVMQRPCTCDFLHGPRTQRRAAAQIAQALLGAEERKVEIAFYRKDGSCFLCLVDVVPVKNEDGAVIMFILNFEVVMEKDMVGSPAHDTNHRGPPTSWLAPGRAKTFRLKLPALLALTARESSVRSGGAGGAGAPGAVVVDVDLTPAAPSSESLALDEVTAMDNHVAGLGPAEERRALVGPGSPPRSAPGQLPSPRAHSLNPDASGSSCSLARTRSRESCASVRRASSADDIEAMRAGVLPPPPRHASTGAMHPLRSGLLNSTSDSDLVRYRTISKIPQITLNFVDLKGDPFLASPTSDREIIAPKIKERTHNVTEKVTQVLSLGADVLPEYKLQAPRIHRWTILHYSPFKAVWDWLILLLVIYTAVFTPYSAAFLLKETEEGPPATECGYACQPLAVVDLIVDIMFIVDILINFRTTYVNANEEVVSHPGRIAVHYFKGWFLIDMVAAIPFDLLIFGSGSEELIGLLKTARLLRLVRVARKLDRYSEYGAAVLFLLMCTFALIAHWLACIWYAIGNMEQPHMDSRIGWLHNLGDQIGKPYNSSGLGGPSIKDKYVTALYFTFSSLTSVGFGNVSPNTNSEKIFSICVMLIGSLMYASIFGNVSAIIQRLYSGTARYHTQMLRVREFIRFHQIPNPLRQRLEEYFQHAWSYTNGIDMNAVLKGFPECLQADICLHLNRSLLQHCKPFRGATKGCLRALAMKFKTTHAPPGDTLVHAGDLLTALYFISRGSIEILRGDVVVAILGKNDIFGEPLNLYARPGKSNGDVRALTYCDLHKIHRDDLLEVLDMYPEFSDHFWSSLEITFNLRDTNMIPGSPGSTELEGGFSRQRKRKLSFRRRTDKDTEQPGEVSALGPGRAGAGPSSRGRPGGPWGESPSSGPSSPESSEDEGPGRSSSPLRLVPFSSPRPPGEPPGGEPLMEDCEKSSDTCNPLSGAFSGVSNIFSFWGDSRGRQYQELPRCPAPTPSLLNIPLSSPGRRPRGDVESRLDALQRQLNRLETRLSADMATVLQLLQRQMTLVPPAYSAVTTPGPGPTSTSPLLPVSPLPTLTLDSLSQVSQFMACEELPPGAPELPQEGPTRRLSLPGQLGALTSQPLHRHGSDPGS
row,Compound,"hERG current change (%, negative = inhibition) at 10uM [%]"
1,COCC1CCCC1OS(N)(=O)=O (stereo not shown),-2.05
2,CC(C)c1onc(C(=O)N(C)Cc2ccccc2)c1[N+](=O)[O-],-9.27
3,Cc1ccc(NC(=O)Cc2n[nH]c(=S)n2C)cc1,20.8
4,Br.CC1CC(C)CN(CC(=O)c2ccc(OC(F)F)cc2)C1 (stereo not shown),-91.5
5,CCOC(=O)c1sc(NC(=O)CCN2CC(C)OC(C)C2)c(C(=O)OCC)c1C.O=C(O)C(=O)O (stereo not shown),13.9
6,C#Cc1ccc(C(=O)Nc2cc(C(N)=O)ccc2N2CCOCC2)cc1,-36.7
7,CCn1cc(C(=O)OCC(=O)Nc2cccc(S(=O)(=O)N3CCOCC3)c2)c(=O)c2ccc(C)nc21,1.34
8,CC(=O)N1N=C(c2ccncc2)OC12CCCC2,-1.03
9,Cc1nc(N2CCN(C(=O)c3ccco3)CC2)c2c3c(sc2n1)CC(C)CC3 (stereo not shown),-63.9
10,COc1ccc(S(=O)(=O)N(C)Cc2cccs2)cc1Br,-7.76
11,CCN(Cc1nc2ccccc2c(=O)[nH]1)Cc1nc2ccsc2c(=O)[nH]1,-14.3
12,CCCCC(=O)NNC(=S)NC(=O)c1ccc(C)cc1,33.9
13,CN(C(=O)c1cnc(N2CCN(c3ncccn3)CC2)c2ccccc12)c1ccc(Cl)cc1,-14.5
14,O=C(NC1CCCCCC1)c1ccccc1-c1ccccc1,-15.7
15,COCc1cc(=O)[nH]c2cc(NC(=O)c3cccc(OC)c3)c(C)cc12,19.2
16,COc1ccc(-n2nc([N+](=O)[O-])c(=NCCc3ccc(Cl)cc3)n2O)cc1,9.03
17,C#CCOc1ccccc1C(N)=O,15.2
18,O=C(NCSc1ccncn1)c1ccccc1,13.3
19,CCN(CCCCCCN)c1ccc2c(=O)[nH][nH]c(=O)c2c1,6.75
20,COc1cccc(CNC(=O)C2CCN(C(=O)N(C)C)CC2)c1,-20.9

row,Compound,"hERG current change (%, negative = inhibition) at 10uM [%]"
1,CCOC(=O)C(C)(C)Sc1nc2c(cnn2-c2ccc(C)cc2)c(=O)[nH]1,-1.92
2,O=C(NC(O)C(=O)c1ccc(F)cc1)c1ccc(F)cc1 (stereo not shown),-2.27
3,CCCCC(=O)Nc1ccc(NC(=O)C2CC2)cn1,6.91
4,CN(CC(=O)NCCN1CCN(Cc2ccccc2)CC1)S(=O)(=O)c1cccc2nsnc12,-25.4
5,CCOc1cc(/C=N/O)cc(Br)c1OCC(=O)NCc1ccccc1,1.7
6,COc1ccc(N2CCN(C(=S)Nc3ccc(C)cc3)CC2)cc1,11.3
7,Cc1ccc(/C=C/C(=O)NC2CCCCCCC2)o1,-11.3
8,CCO/N=C(/C)c1c(O)c(C)c(-c2ccccc2)n(-c2ccccc2)c1=O,1.08
9,Cc1ccc(/C(O)=C2/C(=O)C(=O)N(c3ccccn3)C2c2ccc([N+](=O)[O-])cc2)cc1 (stereo not shown),8.83
10,CC(C)NC(=O)c1ccc2c3n(nc2c1)-c1ccc(Cl)cc1CO3,5.99
11,COc1ccc(S(=O)(=O)n2oc(=O)cc2-c2ccccc2)cc1OC,-11.3
12,CCOC(=O)C(C)Sc1nnc(NC(=O)c2ccc3c(c2)OCO3)s1 (stereo not shown),11.8
13,Cc1oc(-c2ccc(Cl)cc2)cc1-c1nn2c(-c3ccoc3C)nnc2s1,-5.72
14,CCOC(=O)C1=C(C)N(CCCC(=O)O)C(=O)NC1c1cc2ccccc2c2ccccc12 (stereo not shown),1.7
15,Br.CCCCCCn1ccc(=N)cc1,1.66
16,COc1ccc(Nc2nc(-c3cccnc3)cs2)c(OC)c1,-11.7
17,Cc1noc(C)c1S(=O)(=O)NCc1ccc(CN(C)C)cc1.Cl,6.09
18,CCN(CCCNC(=O)C1CCC(=O)N1Cc1ccc(F)cc1)c1cccc(C)c1 (stereo not shown),-18.3
19,CN(Cc1nc(-c2ccncc2)no1)S(=O)(=O)c1ccc(Cl)cc1,-55.5
20,CCOc1ccccc1OCCN1CCC(Cc2ccccc2)CC1.O=C(O)C(=O)O,-67.4

row,Compound,"hERG current change (%, negative = inhibition) at 10uM [%]"
1,Cc1cccc(C(=O)Nc2cccc(C(=O)N/N=C/c3ccc4c(c3)OCO4)c2)c1,-2.89
2,NC(=O)C1CCN(c2ccc(C(F)(F)F)cc2[N+](=O)[O-])CC1,-20.1
3,O=C(Nc1cccc(C(F)(F)F)c1)C(SCCO)c1ccccc1 (stereo not shown),-4.8
4,CN(C)C(=O)NC(NC(=S)Nc1ccccc1)C(Cl)(Cl)Cl (stereo not shown),0.0812
5,CC(=O)NC1(C2CCCCC2=O)CCCCC1 (stereo not shown),13.7
6,CS(=O)(=O)N(Cc1ccc(C(=O)NC2CCCCC2O)cc1)c1ccccc1 (stereo not shown),-0.463
7,O=C(Nc1ccc(Cl)cc1F)C1CC1,-1.77
8,CCOC(=O)N1CCN(C(=O)C2CCN(C(=O)c3cc(OC)cc(OC)c3)CC2)CC1,-13.5
9,C[C@H](NC(=O)CCn1nnc2ccccc2c1=O)C(=O)O,1.71
10,Cc1cc(Br)ccc1OCC(=O)NC1CCCC1,-1.99
11,O=C(CSc1nnnn1-c1ccc(O)cc1)Nc1ccc(N2CCOCC2)c(Cl)c1,-1.58
12,CCN(CCCNC(=O)C1c2ccccc2C(=O)N(CCOC)C1c1ccc(F)cc1)Cc1ccccc1 (stereo not shown),-35
13,Cc1c(C=O)c2ccccc2n1CCOc1ccccc1,1.61
14,CC(Sc1ncn[nH]1)C(=O)c1c(N)n(C)c(=O)n(C)c1=O (stereo not shown),10.9
15,O=C(Cc1ccc(F)cc1)N1CCN=C1SCc1ccc([N+](=O)[O-])cc1,-47.3
16,COc1ccc(Cl)cc1NC(=O)CCS(=O)(=O)c1ccc(C)cc1,3.76
17,O=C(NCC1CCCO1)C(c1cccs1)N(C(=O)c1ccc(CN2CCOCC2)o1)c1ccc(Cl)cc1 (stereo not shown),6.38
18,Cc1cc2nc3n(c2cc1C)CC1CC(C(=O)NCc2ccco2)N(C)C31 (stereo not shown),-29
